In the supplement of paper PMC3334620:
In all, about 33,000 sequences were measured (“E-score (-0.5 to 0.5)”: median about -0.056, highest 2% from about 0.38 on). The list shows a part of the results.

What follows are sequences tested against Stb4 (UniProt P50104) (assay: PBM E-score (8-mer binding enrichment) (E-score (-0.5 to 0.5)); higher = stronger / more preferred TF binding; most listed sequences are background and not binding sites). Settings: protein concentration: 200 nM; construct: GST-DNA-binding domain.
Description: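 Universal 'all 10-mer' protein binding microarrays (Agilent AMADID 015681) probed with GST-tagged S. cerevisiae TFs (full-length or DBD) made by in vitro transcription/translation (PURExpress), about 100-200 nM. Bound TF was detected with fluorescent anti-GST. Each ungapped 8-mer (which stands for itself and its reverse complement) is scored by the PBM enrichment score (E-score), a modified Wilcoxon-Mann-Whitney statistic from -0.5 to +0.5, computed with the Universal PBM Analysis Suite. Scale: above 0.35 generally sequence-specific binding.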
In the case of GAATTTAC, the “PBM E-score” value was 0.0566. In the case of ACAATGAC, the “PBM E-score” value was -0.176. CGCCTGAA was tested, and the “PBM E-score” value was -0.114. For TATTAACA, the “PBM E-score” value was -0.104. With AGAAGTGG the “PBM E-score” value was -0.00087. In the case of AATGCGAG, the “PBM E-score” value was -0.153. For GCACCTAA, the “PBM E-score” value was -0.0958. For AGTCGGTG, the “PBM E-score” value was -0.029. With CACGATGG the “PBM E-score” value was -0.257. In the case of AAGGTAAA, the “PBM E-score” value was 0.0558. CGCGTCGC was tested, and the “PBM E-score” value was -0.0788. With ACCATTAT the “PBM E-score” value was -0.0391. With TGACATAA the “PBM E-score” value was 0.00403. With AACAATCT the “PBM E-score” value was -0.0248. ACCGCAGG was tested, and the “PBM E-score” value was 0.0861. In the case of AACTTCTT, the “PBM E-score” value was -0.132. In the case of AACATAGA, the “PBM E-score” value was -0.00346. With CATGTGAC the “PBM E-score” value was -0.412. With ACGCGAAT the “PBM E-score” value was -0.164. In the case of GGACTAGA, the “PBM E-score” value was 0.0751. With AGATGACC the “PBM E-score” value was 0.00621. With CTTAACCA the “PBM E-score” value was -0.207. In the case of ATGAAGGC, the “PBM E-score” value was -0.131. In the case of CGCCCTCA, the “PBM E-score” value was -0.0542. With CGCAAGCA the “PBM E-score” value was -0.176. ACATGTAT was tested, and the “PBM E-score” value was -0.088. TAAACGAA was tested, and the “PBM E-score” value was -0.157. With CAGTTATG the “PBM E-score” value was -0.13. AGGCGTCG was tested, and the “PBM E-score” value was -0.0232. For CCCCGCCA, the “PBM E-score” value was 0.232. For AGTATGCG, the “PBM E-score” value was 0.0955. AAATAATA was tested, and the “PBM E-score” value was 0.132. For AACGTGCT, the “PBM E-score” value was -0.139. For GCACCCGA, the “PBM E-score” value was 0.434. In the case of AGACTTAT, the “PBM E-score” value was -0.205. With CGGCAGAC the “PBM E-score” value was 0.18. AGCGGTTG was tested, and the “PBM E-score” value was -0.124. ACCAACGG was tested, and the “PBM E-score” value was 0.166. ATGGTGCC was tested, and the “PBM E-score” value was 0.143. For AGCAGGGG, the “PBM E-score” value was -0.051. GGACCCGA was tested, and the “PBM E-score” value was 0.386. In the case of GTGACAAA, the “PBM E-score” value was -0.175. TCGTGAAA was tested, and the “PBM E-score” value was -0.1. TAAATACA was tested, and the “PBM E-score” value was -0.0802. With TGTGCTAA the “PBM E-score” value was 0.111. With GGACTTTA the “PBM E-score” value was 0.156. With AACTCTCG the “PBM E-score” value was 0.0945. In the case of AACCTTAG, the “PBM E-score” value was -0.0964. In the case of GCACTAAC, the “PBM E-score” value was 0.0338. GAAAGGGA was tested, and the “PBM E-score” value was 0.0367. AGCGGCTG was tested, and the “PBM E-score” value was 0.0576. In the case of AATTCAGC, the “PBM E-score” value was -0.017. With ATCCTGGC the “PBM E-score” value was -0.142. For AGCACGAC, the “PBM E-score” value was -0.0379. With AATTTTGT the “PBM E-score” value was 0.0865. CACAGTCC was tested, and the “PBM E-score” value was -0.147. In the case of CTGTGCTC, the “PBM E-score” value was -0.00708. With GAACTCAA the “PBM E-score” value was -0.011. For CGACTTGA, the “PBM E-score” value was -0.0925. ACGACGTG was tested, and the “PBM E-score” value was -0.231. For CACACTAG, the “PBM E-score” value was -0.139. In the case of TGACAGCA, the “PBM E-score” value was -0.127. With GGCTACAA the “PBM E-score” value was -0.00609. With ACGAATGA the “PBM E-score” value was 0.0262. In the case of CCACTGTA, the “PBM E-score” value was -0.133. In the case of AATCGGAC, the “PBM E-score” value was 0.133. CAGCGGCA was tested, and the “PBM E-score” value was -0.0226. With GCGTATCA the “PBM E-score” value was -0.19. AAGTCCAC was tested, and the “PBM E-score” value was -0.202. For ACTGAGCG, the “PBM E-score” value was -0.198. For GGCGTGAA, the “PBM E-score” value was -0.0673. ACCAGTGA was tested, and the “PBM E-score” value was -0.21. With CTAGCCTC the “PBM E-score” value was -0.165. GAATTGAA was tested, and the “PBM E-score” value was 0.0209. In the case of TACTTACA, the “PBM E-score” value was -0.0918. With TAATGAAA the “PBM E-score” value was -0.043. In the case of AGGACATC, the “PBM E-score” value was 0.0539. In the case of CAGGCGAG, the “PBM E-score” value was -0.294. With ATGGTGGG the “PBM E-score” value was -0.0919. With CGCGCAGA the “PBM E-score” value was -0.061. With GCCTACCC the “PBM E-score” value was 0.0606. In the case of ATCGGAAA, the “PBM E-score” value was 0.424. With GTTCAAGA the “PBM E-score” value was 0.0136. In the case of ATGGAGCA, the “PBM E-score” value was -0.195. GCCCTACC was tested, and the “PBM E-score” value was 0.00825. CCGCCGTC was tested, and the “PBM E-score” value was 0.0393. In the case of AACTCCTC, the “PBM E-score” value was -0.0105. For GCGGCATA, the “PBM E-score” value was 0.0839. CCATGTTC was tested, and the “PBM E-score” value was -0.0158. With AGATCCGG the “PBM E-score” value was 0.366. With AAAAGAAT the “PBM E-score” value was -0.0316. GACGCGAA was tested, and the “PBM E-score” value was -0.14. ACGCACGT was tested, and the “PBM E-score” value was -0.132. For ACGATAGA, the “PBM E-score” value was -0.181. For ACATAACG, the “PBM E-score” value was 0.0312. For CCCCGTGC, the “PBM E-score” value was 0.176. For CCTTTATA, the “PBM E-score” value was -0.113. For CGCGTACC, the “PBM E-score” value was 0.0237. With TACGACAA the “PBM E-score” value was -0.0859. For ATCGCGGA, the “PBM E-score” value was 0.172. For AGCCTTTA, the “PBM E-score” value was -0.0983. GTGCGAAC was tested, and the “PBM E-score” value was -0.0642. For CTACAGTC, the “PBM E-score” value was -0.214. In the case of ACCACTCC, the “PBM E-score” value was 0.137. With ACAGGTAT the “PBM E-score” value was 0.0777. For AGAAGATG, the “PBM E-score” value was -0.0645. In the case of CGGGTAGA, the “PBM E-score” value was 0.389. For AAGGGGAG, the “PBM E-score” value was -0.056. In the case of CATCACCA, the “PBM E-score” value was -0.265. In the case of CCTCCACG, the “PBM E-score” value was -0.194. For ATTTGCGA, the “PBM E-score” value was -0.226. In the case of ACCTTTTC, the “PBM E-score” value was -0.171. For TCTAAAAA, the “PBM E-score” value was 0.0389. CTGCAGTA was tested, and the “PBM E-score” value was -0.353. With GTTTGACA the “PBM E-score” value was -0.0918. For TGAAAGAA, the “PBM E-score” value was -0.122. CCCGCCGC was tested, and the “PBM E-score” value was 0.274. For TAGTTGCA, the “PBM E-score” value was -0.0122. In the case of GATATTTA, the “PBM E-score” value was 0.0794. In the case of CGTCAACC, the “PBM E-score” value was 0.0346. In the case of CAGGGAGG, the “PBM E-score” value was -0.264. With CCACGACA the “PBM E-score” value was -0.126. CTGTTATC was tested, and the “PBM E-score” value was -0.0959. For ACGCTGGA, the “PBM E-score” value was -0.079. ACCTCATG was tested, and the “PBM E-score” value was -0.336. In the case of GCCGCAGC, the “PBM E-score” value was 0.00612. In the case of GGAGAATA, the “PBM E-score” value was 0.148. For GCGGGTGA, the “PBM E-score” value was 0.214. GTTTTAAA was tested, and the “PBM E-score” value was -0.17. For CAGAAGCG, the “PBM E-score” value was 0.0402. CGTGCGGC was tested, and the “PBM E-score” value was 0.00334. With ACCGTAGC the “PBM E-score” value was 0.0437. With GTGTCCAA the “PBM E-score” value was -0.0404. For GTAATTAC, the “PBM E-score” value was 0.0658. TATGTAAA was tested, and the “PBM E-score” value was -0.0136. For ATCATCAG, the “PBM E-score” value was -0.159. In the case of CCGGCGCG, the “PBM E-score” value was 0.301. CGGTTGGA was tested, and the “PBM E-score” value was 0.098. AACAAGCA was tested, and the “PBM E-score” value was -0.0987. CCGCTTCG was tested, and the “PBM E-score” value was 0.177. With AGTATCAA the “PBM E-score” value was -0.0115. ATTGCAGG was tested, and the “PBM E-score” value was -0.0795. TTTACAAA was tested, and the “PBM E-score” value was -0.083. With AGATGGTG the “PBM E-score” value was -0.129. With ATTGAAAT the “PBM E-score” value was -0.155. In the case of CCACTACG, the “PBM E-score” value was 0.021. With GGTGGGCA the “PBM E-score” value was -0.0981. For AAACGTCA, the “PBM E-score” value was -0.174. For ATTCGGTC, the “PBM E-score” value was 0.223. For GAGACAGA, the “PBM E-score” value was -0.0711. With CAACGCGA the “PBM E-score” value was -0.0616. With ACGGACGC the “PBM E-score” value was -0.0449. GAACGAGA was tested, and the “PBM E-score” value was -0.0136. With GTTGGCCA the “PBM E-score” value was -0.152. For ACCGCGCA, the “PBM E-score” value was -0.102. For AGGGCCGA, the “PBM E-score” value was 0.232. With CGGTAGCA the “PBM E-score” value was 0.13. ACGCGGCA was tested, and the “PBM E-score” value was 0.199. CAGGATGC was tested, and the “PBM E-score” value was 0.165. GAAAAGAA was tested, and the “PBM E-score” value was 0.0326. With AGCTGTGC the “PBM E-score” value was -0.148. In the case of AAGCATGC, the “PBM E-score” value was -0.292. AGGTAGCG was tested, and the “PBM E-score” value was -0.0768. With TACACATA the “PBM E-score” value was -0.103. For AGGGCTGA, the “PBM E-score” value was -0.0772. In the case of ACTGAACA, the “PBM E-score” value was -0.0425. In the case of GAGGATAA, the “PBM E-score” value was -0.0181. In the case of AGCAAGAG, the “PBM E-score” value was -0.397. In the case of ACGCCGGC, the “PBM E-score” value was 0.265. With GCATATGC the “PBM E-score” value was -0.173. AAGTAAAT was tested, and the “PBM E-score” value was 0.0183. CTGCTTTC was tested, and the “PBM E-score” value was 0.00582.
